In all, about 310,000 compounds went through this assay and about 14,000 (4.5%) showed an effect of 50% or more. Effects have a minus sign here. The list shows a part of the results.
molecular target: human ether-à-go-go-related gene (hERG) potassium channel (human, UniProt Q12809); experiment: primary screen, population patch clamp on CHO cells stably expressing hERG
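Also: peak tail current of the secondary pulse compared with the same well before compound.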

Chain of human ether-à-go-go-related gene (hERG) potassium channel (Q12809 whole entry, looked up): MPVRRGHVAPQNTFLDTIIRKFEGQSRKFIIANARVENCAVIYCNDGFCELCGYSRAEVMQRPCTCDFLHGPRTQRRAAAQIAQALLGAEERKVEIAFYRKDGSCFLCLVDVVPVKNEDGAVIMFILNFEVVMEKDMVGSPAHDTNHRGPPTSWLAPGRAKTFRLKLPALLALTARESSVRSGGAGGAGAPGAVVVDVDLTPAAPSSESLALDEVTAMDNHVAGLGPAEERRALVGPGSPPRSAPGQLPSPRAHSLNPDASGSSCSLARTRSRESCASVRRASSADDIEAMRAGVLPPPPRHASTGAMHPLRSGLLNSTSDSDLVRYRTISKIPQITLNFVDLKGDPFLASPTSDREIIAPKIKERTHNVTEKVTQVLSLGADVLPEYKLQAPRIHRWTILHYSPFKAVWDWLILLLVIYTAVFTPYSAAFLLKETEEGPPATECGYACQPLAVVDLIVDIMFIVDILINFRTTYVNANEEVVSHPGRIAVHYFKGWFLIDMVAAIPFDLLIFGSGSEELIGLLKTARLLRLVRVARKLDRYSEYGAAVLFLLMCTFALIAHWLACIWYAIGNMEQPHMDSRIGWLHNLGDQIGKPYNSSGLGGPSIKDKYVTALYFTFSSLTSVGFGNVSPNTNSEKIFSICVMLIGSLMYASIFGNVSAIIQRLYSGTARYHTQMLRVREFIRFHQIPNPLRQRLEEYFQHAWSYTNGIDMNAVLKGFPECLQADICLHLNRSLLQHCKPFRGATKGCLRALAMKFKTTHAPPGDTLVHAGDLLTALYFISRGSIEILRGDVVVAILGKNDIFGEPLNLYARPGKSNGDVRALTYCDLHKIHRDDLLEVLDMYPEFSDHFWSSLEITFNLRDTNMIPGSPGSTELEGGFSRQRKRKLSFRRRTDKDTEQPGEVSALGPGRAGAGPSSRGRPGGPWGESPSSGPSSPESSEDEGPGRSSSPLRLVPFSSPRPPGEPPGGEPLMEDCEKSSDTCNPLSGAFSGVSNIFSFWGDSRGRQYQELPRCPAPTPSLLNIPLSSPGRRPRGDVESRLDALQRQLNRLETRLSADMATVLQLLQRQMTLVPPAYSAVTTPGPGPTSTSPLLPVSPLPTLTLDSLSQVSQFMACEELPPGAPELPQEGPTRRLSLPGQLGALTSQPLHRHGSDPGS

SMILES | hERG current change (%, negative = inhibition) at 10uM [%]
COc1ccc(/C=N/Nc2ccc([N+](=O)[O-])cc2S(=O)(=O)N2CCN(C)CC2)cc1 | 9.15
COc1ccc(CNS(=O)(=O)NCc2ccc(C)cc2)cc1 | 19.1
Cc1c(NC(=O)CCc2ccccc2)cccc1[N+](=O)[O-] | 25.3
COc1ccccc1-n1cnnc1SCC(=O)c1cc(C)n(Cc2cccs2)c1C | -27.8
CCn1cc(C(=O)Nc2ccc(C)cc2[N+](=O)[O-])c(C)n1 | 5.23
Cc1ccc(-c2cc(C(=O)Nc3ccc(S(=O)(=O)Nc4cc(C)on4)cc3)c3ccccc3n2)c(C)c1 | -0.583
COc1cc(S(=O)(=O)Nc2ccccc2C)ccc1Cl | 6.23
Cc1cccc(C)c1NS(=O)(=O)c1c(C)[nH]c(=O)[nH]c1=O | -14.2
CCOC(=O)Cc1csc(NC(=O)CSc2nnc(-c3cccnc3)n2Cc2ccco2)n1 | -30.5
CC1(C)CC(=O)C2=C(C1)N(c1ccccc1)C(=O)C2(O)C(F)(F)F (stereo not drawn) | 1.69
Cc1ccc(S(=O)(=O)N2C(=O)C(c3ccccc3)SC2=Nc2ccccc2)cc1 (stereo not drawn) | 16.9
CCCNC(=O)COC(=O)c1cc(SC)ccc1Cl | -10.8
Cc1cccc(-n2c(SCC(=O)Nc3nonc3C)nnc2-c2ccoc2C)c1 | -78.9
CCCc1cc(=O)[nH]c2nnc(SCC(=O)Nc3ccc4c(c3)OCCO4)n12 | 11.6
Cl.c1coc(CNc2ncnc3ccccc23)c1 | 2.88
CCN(CC)c1ccc(C(=O)N/N=C(\C)c2ccc(O)cc2)cc1 | 16.6
CCOC(=O)C1(Cc2ccccc2C)CCCN(C(=O)c2ccc(CSC)o2)C1 (stereo not drawn) | -39.1
O=C(O)COc1ccc(Br)cc1/C=N/O | 7.4
CC(C)=C(NC(=O)c1ccccc1)C(=O)NCCc1nc2ccccc2[nH]1 | 9.91
COc1ccc(CCN(Cc2cccs2)S(=O)(=O)c2ccc(C(=O)O)cc2)cc1OC | 32
CCCCCc1c(O)nc(SCCN(C)C)[nH]c1=O.Cl | 11.4
CCOc1ccc(C(=O)N2CCN(Cc3ccccc3)CC2)cc1 | -69.3

SMILES | hERG current change (%, negative = inhibition) at 10uM [%]
CCSc1ccc(-c2ccco2)nn1 | 7.31
Cc1c(C)c2ccc(OC(C)C(=O)NCc3ccccn3)cc2oc1=O (stereo not drawn) | 15.3
O=C1N=C(N2CCCCC2)S/C1=C/C1=Cc2ccccc2OC1 | -15.4
COC(=O)C[C@H]1c2cc(F)ccc2S(=O)(=O)N1c1ccccc1 | 8.82
O=C(CCC1CCCC1)Nc1ccc(Br)cn1 | 1.29
O=P(O)(CP(=O)(c1ccccc1)c1ccccc1)c1ccccc1O | 18.7
Cc1cc(C)nc(NC(=O)CSc2nn(C)c(=S)s2)n1 | -0.37
O=C(NCC(c1ccco1)N1CCN(c2ccc(F)cc2)CC1)C(=O)NC1CC1 (stereo not drawn) | -4.67
COc1ccc2c(c1)CCC/C2=N\NC(=O)c1ccoc1C | 1.44
O=C(CSc1nc(O)cc(=O)[nH]1)N1CCOCC1 | 3.8
C=CCC1(CN2CCCCCC2=O)C(=O)NC(=O)NC1=O | 10.3
CCCCN(C(=O)c1ccc([N+](=O)[O-])o1)c1c(N)n(CCCC)c(=O)[nH]c1=O | 2.83
CCc1ccc(NC(=O)CSc2nc(CSc3ccc(C)cc3)cc(=O)[nH]2)cc1 | 11.3
COc1cc(/C=C(\C#N)C(=O)Nc2cccnc2)ccc1OC(C)C | 0.825
O=C(NN1C(=O)c2ccc(-c3ccc4c(c3)C(=O)N(NC(=O)c3cccnc3)C4=O)cc2C1=O)c1cccnc1 | 6.56
CC(C)(C)c1cc(C(=O)N/N=C/c2ccc(O)cc2)n(-c2ccccc2)n1 | -14.9
COc1cc2nc(SCC(=O)c3ccc(Br)cc3)n3nc(C)nc3c2cc1OC | -17.7
Cc1ccc(NC2SC(=O)N(Cc3cccc(C(=O)O)c3)C2=O)cc1 (stereo not drawn) | 15.2
Cc1csc(NC(=O)NC2(C(F)(F)F)Oc3ccccc3O2)n1 | 5.26
O=C(NCC(=O)N1CCN(c2ccccc2)CC1)c1ccccc1 | 1.32
Cc1cc(=O)oc2cc(NC(=O)c3c(Cl)cnn3C)ccc12 | 6.18
N/C(=N\OC(=O)C12CC3CC(CC(C3)C1)C2)c1ccncc1 | 5.05

SMILES | hERG current change (%, negative = inhibition) at 10uM [%]
O=C(COC(=O)c1ccc([N+](=O)[O-])o1)NC1CCS(=O)(=O)C1 (stereo not drawn) | 11.4
CC12CCC(C(=O)N(c3ccc(Cl)cc3)C1=O)C2(C)C (stereo not drawn) | 4.57
COC(=O)C1CN(C(=O)COc2cccc(C)c2C)c2ccccc2O1 (stereo not drawn) | -6.63
COCCNC(=O)CN1CCC(n2c(C)nc3cc(C(F)(F)F)ccc32)CC1 | -25.6
CCOC(=O)CC1C(=O)NC2CCCCC2N1C(=O)Nc1ccc(Cl)cc1 (stereo not drawn) | -10.1
COc1cc(C#Cc2ccc3cc(C(C)(C)O)oc(=O)c3c2)cc(OC)c1 | 27.1
CC(C)CN(C(=O)COC(=O)c1nc(Cl)ccc1Cl)c1c(N)n(Cc2ccccc2)c(=O)[nH]c1=O | 19.5
COc1cccc(C(=O)C2CCCN(Cc3ccc4nonc4c3)C2)c1 (stereo not drawn) | -48.5
CC1=CC(c2ccccc2)=Nc2ccc(C)cc2N1 | -14.4
Oc1cccc2c3c(oc12)CCCC3 | 13.7
COc1ccccc1N(Cc1ccccc1)S(=O)(=O)c1cccc(C(=O)O)c1 | 10.9
O=C(NCCC1=CCCCC1)c1ccc(Cl)c([N+](=O)[O-])c1 | -23.3
O=C(NC(CSCc1ccccc1)C(=O)N/N=C/c1ccc(O)cc1O)c1ccc([N+](=O)[O-])cc1 (stereo not drawn) | -22.4
CCOc1ccc(NC2=C(Cl)C(=O)N(Cc3ccccc3)C2=O)cc1 | -0.258
Cc1c(OC(C)C(=O)NCC2CCC(C(=O)O)CC2)ccc2c1oc(=O)c1ccccc12 (stereo not drawn) | 0.908
O=c1[nH]c(Nc2ccc(F)cc2)cc2ccccc12 | 0.412
CCn1nc(C)cc1C(=O)N1CCCC(C(=O)c2cccc(OC)c2)C1 (stereo not drawn) | 1.8
Nc1nc(F)cc(N2CCCCCC2)n1 | 12.5
COc1ccc(C(=O)Nc2oc(-c3ccccc3)c(-c3ccccc3)c2C#N)cc1 | -3.15
CCOc1cc(C(=S)N2CCOCC2)ccc1OC(=O)c1cccc(C)c1 | -42
CCN1C/C(=C/c2ccc(OC)c(O)c2)C(=O)/C(=C/c2ccc(OC)c(O)c2)C1 | 9.33
CSc1nnc(CCNC(=O)OC(C)(C)C)o1 | 10.8

SMILES | hERG current change (%, negative = inhibition) at 10uM [%]
Cc1cccc(OCC(=O)Nc2ccncc2)c1 | -0.803
CCOC(=O)c1ccc(NC(=S)N(CCN(C)C)C(C)c2ccncc2)cc1 (stereo not drawn) | -21
O=C(O)C(=O)O.O=[N+]([O-])c1cccc(OCCN2CCC(Cc3ccccc3)CC2)c1 | -71.1
CCOC(=O)c1cc2c(C)n(-c3ccc(OCC)cc3)c(C)c2cc(C(=O)OCC)c1=O | 0.773
O=C(NCc1cccnc1)c1ccc(-c2cc3ccccc3oc2=O)cc1 | 4.65
Cc1c(OC(C)C(=O)NCC(O)c2ccccc2)ccc2c3c(c(=O)oc12)CCC3 (stereo not drawn) | -13.3
Cn1cnnc1SCC(=O)c1cccc([N+](=O)[O-])c1 | -2.06
Cc1ccccc1Sc1ncnc2onc(C)c12 | 0.173
COc1ccc(Nc2cc(C(=O)NCCCOC(C)C)c3ccccc3n2)c(OC)c1 | 12.2
O=C(N[C@@H](Cc1ccccc1)C(=O)NC1CCCCCC1)c1ccco1 | 33.3
Cc1cc(C)nc(NC(=O)C(c2ccccc2)c2ccccc2)c1 | 3.55
CCC(O)(CC)C(=O)N(Nc1ccc(C)cc1)c1ccc(C)cc1 | 12.8
O=C(CCn1c(=O)c2ccccc2n(Cc2cccc([N+](=O)[O-])c2)c1=O)N1CCc2ccccc2C1 | -38.2
CCOc1ccc(NC(=O)C(=O)NCc2ccncc2)cc1 | -7.08
C=CCn1c(N)cc(=O)nc1SC(CC)C(=O)Nc1ccc(C(C)=O)cc1 (stereo not drawn) | 11.2
Cc1ccccc1N1CC(C(=O)Nc2nnc(SCCN3CCOCC3)s2)CC1=O (stereo not drawn) | 22.1
O=C(CCN1C(=O)COc2ccccc21)NCCN1CCN(c2ccccc2F)CC1 | -33.5
COC(=O)CCN(C(C)=O)c1ccc(N)cc1 | 17.8
CCN(CC)C1CCN(Cc2c(C(=O)N3CCCCCCC3)nc3ccc(Cl)cn23)C1 (stereo not drawn) | -1.9
CCOC(=O)C1CCCN(CCC(=O)Nc2ccc(C)c(C)c2)C1.Cl (stereo not drawn) | -44.8
CC(=O)NS(=O)(=O)c1ccc(NC(=O)c2ccc(S(=O)(=O)N3CCCC3)cc2)cc1 | -0.257
